Reference: PMC4336329 (PLoS ONE, 2015)
Screen size: about 310,000 compounds; about 2,200 (0.71%) showed an effect of 50% or more. The effect is printed as a negative number. This is one part of the list.

biological target: human ether-à-go-go-related gene (hERG) potassium channel (human, UniProt Q12809); test: primary screen, population patch clamp on CHO cells stably expressing hERG
Sequence (Q12809 whole entry, looked up): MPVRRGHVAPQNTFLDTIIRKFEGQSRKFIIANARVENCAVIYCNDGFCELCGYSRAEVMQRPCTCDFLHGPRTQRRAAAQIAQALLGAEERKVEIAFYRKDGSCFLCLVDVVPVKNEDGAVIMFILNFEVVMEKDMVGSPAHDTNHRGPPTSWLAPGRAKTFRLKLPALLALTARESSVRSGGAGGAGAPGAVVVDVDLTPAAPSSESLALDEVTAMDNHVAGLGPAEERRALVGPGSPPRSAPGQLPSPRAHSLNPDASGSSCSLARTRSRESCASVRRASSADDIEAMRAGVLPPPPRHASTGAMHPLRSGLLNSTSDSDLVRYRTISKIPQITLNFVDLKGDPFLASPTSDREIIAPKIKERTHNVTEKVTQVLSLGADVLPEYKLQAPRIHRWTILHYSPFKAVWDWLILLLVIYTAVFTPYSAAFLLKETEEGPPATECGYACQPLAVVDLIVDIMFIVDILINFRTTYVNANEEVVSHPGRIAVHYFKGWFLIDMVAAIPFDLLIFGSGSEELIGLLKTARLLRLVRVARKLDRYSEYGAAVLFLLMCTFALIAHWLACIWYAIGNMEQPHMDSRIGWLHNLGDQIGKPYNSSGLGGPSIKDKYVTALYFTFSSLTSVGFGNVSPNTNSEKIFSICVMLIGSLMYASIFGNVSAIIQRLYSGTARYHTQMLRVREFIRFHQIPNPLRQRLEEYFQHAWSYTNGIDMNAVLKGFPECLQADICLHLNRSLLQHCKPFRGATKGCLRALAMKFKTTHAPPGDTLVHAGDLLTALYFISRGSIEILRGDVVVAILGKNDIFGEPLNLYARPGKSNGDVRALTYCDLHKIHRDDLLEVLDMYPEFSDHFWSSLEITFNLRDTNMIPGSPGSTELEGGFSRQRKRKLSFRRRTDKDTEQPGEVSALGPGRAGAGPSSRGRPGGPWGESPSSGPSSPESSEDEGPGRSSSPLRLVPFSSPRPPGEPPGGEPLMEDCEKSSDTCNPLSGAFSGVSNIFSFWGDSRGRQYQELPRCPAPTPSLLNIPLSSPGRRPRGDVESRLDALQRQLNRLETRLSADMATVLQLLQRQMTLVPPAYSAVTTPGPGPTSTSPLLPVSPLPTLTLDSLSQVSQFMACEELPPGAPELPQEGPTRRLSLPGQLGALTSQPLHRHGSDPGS

Row | SMILES | hERG current change (%, negative = inhibition) at 1uM [%]
1 | CCOC(=O)C1=C(C)NC(SCC(N)=O)=C(C#N)C1c1cccs1 (stereo not shown) | -0.462
2 | Cc1nnc(SCC(=O)NC2CCS(=O)(=O)C2)n1Cc1ccccc1 (stereo not shown) | 22.9
3 | O=C(/C=C/c1ccccc1)Oc1cccc(C(=S)N2CCOCC2)c1 | 13.2
4 | O=C(c1ccc(-c2ccccc2Cl)o1)N1CCN(S(=O)(=O)c2cccs2)CC1 | 17.1
5 | OCc1cn(-c2ccccc2)nc1-c1ccc2c(c1)OCCO2 | 8.48
6 | CCOC(=O)c1c(-c2ccccc2)csc1NC(=O)CCN1CCOCC1.O=C(O)C(=O)O | 3.23
7 | Cc1ccc(N2C(=S)NC3c4ccccc4OC2(C)C3C(=O)N(C)C)cc1 (stereo not shown) | 6.64
8 | COC(=O)c1[nH]c2cc(OC)ccc2c1NC(=O)CN1CCC(C(N)=O)CC1 | 14.5
9 | CC(C)(CNC(=O)c1ccccc1F)CNC(=O)c1ccccc1F | 8.16
10 | CCOc1cccc(NC(=O)CSc2nc(C)c3c(c2C#N)CCCC3)c1 | 6.42
11 | CC(C)(C)NC(=O)C(c1ccncc1)N(Cc1cccs1)C(=O)Cn1nnc(-c2ccc(F)cc2)n1 (stereo not shown) | -0.676
12 | O=Cc1nc(-c2ccccc2Cl)n2ccccc12 | -1.26
13 | CCOC(=O)c1cc(CC)sc1NC(=O)Cc1ccsc1 | 13.4
14 | COc1ccc(N2CC(C(=O)N3CCN(c4ccccc4OC)CC3)CC2=O)cc1 (stereo not shown) | 4.23
15 | Cc1cc(N/N=C/c2cccc([N+](=O)[O-])c2)nc(-n2nc(C)cc2C)n1 | 15.9
16 | Cc1ccc(-c2nnc3ccc(SCC(=O)Nc4cc(C)on4)nn23)cc1 | -12.8
17 | O=S(=O)(c1ccccc1Br)N1CCN(c2ncccn2)CC1 | 9.03
18 | Cc1nn(C)c(C(=O)Nc2c(C)nn(Cc3c(F)c(F)c(F)c(F)c3F)c2C)c1Br | 8.56
19 | Cc1ccc(OCC(=O)N/N=C\c2ccc(O)cc2)c([N+](=O)[O-])c1 | 25.6
20 | O=C(Oc1ccc(-c2nnco2)cc1)N1CCOCC1 | 6.36
21 | COc1cc(/C=N/NC(=O)CCN2CCN(C)CC2)cc2c1OCO2 | 10.6
22 | O=c1ccc(S(=O)(=O)N2CCCC2)cn1Cc1nc(-c2ccccc2)no1 | 6.33

Row | SMILES | hERG current change (%, negative = inhibition) at 1uM [%]
23 | O=C(N/N=C/c1ccccc1[N+](=O)[O-])c1ccncc1 | 16.3
24 | Cc1nn(-c2ccccc2)c(N2CCCC2)c1/C=N/NC(=S)Nc1cc(C(F)(F)F)ccc1Cl | 12
25 | CCn1ncc(C2=NOC(C(=O)Nc3cccc(O)c3)C2)c1C (stereo not shown) | 8.82
26 | Nc1nnn(CC(=O)N/N=C/c2ccc(O)cc2)n1 | 15.6
27 | Cc1ccc(S(=O)(=O)CCc2nnc(NC(=O)c3ccco3)s2)cc1 | 9.32
28 | Cc1ccc2nc(-c3cccc(S(=O)(=O)N(C)C)c3)cn2c1 | 11.8
29 | CCC(C(=O)O)n1c(C(F)(F)F)nc2ccccc21 (stereo not shown) | -3.57
30 | CCn1c2ccccc2c2cc(NC(=O)c3cccc([N+](=O)[O-])c3C)ccc21 | 10.5
31 | CCC(=O)Nc1ccc(Cl)c(NC(=O)c2c(OC)cccc2OC)c1 | 10.5
32 | COC(=O)c1cccc(N2C(=O)C3C4C=CC(CC4)C3C2=O)c1 (stereo not shown) | 16.9
33 | CN(c1ccccc1)S(=O)(=O)c1cc(C(=O)NCCCn2ccnc2)ccc1Cl | 0.127
34 | C[C@@H](CSc1ccccc1)CN1CC[C@H](O)CCC1=O | 13.7
35 | NS(=O)(=O)c1ccc(CCNC(=O)c2cc(-c3ccc(Br)cc3)nc3ccccc23)cc1 | 15.6
36 | Br.Cc1ccc(C(=O)CSc2nc3ccccc3o2)cc1 | 12.3
37 | COC(=O)CCSCC(=O)Nc1ccc(C)c(S(=O)(=O)N2CCCCC2)c1 | 10.7
38 | Cc1ccc(Cn2c(SCC(N)=O)nc3c2c(=O)n(C)c(=O)n3C)cc1 | 4.71
39 | O=C(NCCC1=CCCCC1)c1ccc(Br)o1 | 4.5
40 | O=C(Nc1ccc(NC(=O)c2cccs2)c(Cl)c1)c1cccs1 | 13.4
41 | Cl.NC(Cc1ccccc1)c1nc2ccccc2[nH]1 (stereo not shown) | 24.7
42 | CCc1c(C)sc(NC(=O)c2cc(-c3ccc(O)cc3)on2)c1C#N | 11.2
43 | N#Cc1ccccc1OCCOCCNC1CCCC1 | 4.69
44 | Cc1ccc(O)c(C(CC(=O)NC(C)C)c2ccccc2)c1 (stereo not shown) | 11.8

Row | SMILES | hERG current change (%, negative = inhibition) at 1uM [%]
45 | COc1cccc(C(C(=O)NC2CCCC2)N(C(=O)c2ccco2)c2ccc(-n3cnnn3)c(C)c2)c1OC (stereo not shown) | 12.9
46 | COc1ccc(-n2nc3cc(N)c(Br)cc3n2)cc1 | 11.9
47 | CCc1c(C)sc(NC(NC(C)=O)(C(=O)OC)C(F)(F)F)c1C#N (stereo not shown) | 8.23
48 | CCn1c(C)c(P(c2ccccc2)c2ccccc2)[n+]2ccccc12.F[B-](F)(F)F | 15.5
49 | O=C(COc1ccc(Br)cc1Br)NC(=O)NC1CCCC1 | 9.81
50 | COC(=O)c1ccc(C2NCCc3cc(OC)c(OC)cc32)cc1 (stereo not shown) | 15.4
51 | CC(C)Cc1cc(C(=O)NCCN2CCOCC2)no1 | -0.983
52 | O=C(NC12CC3CC(CC(C3)C1)C2)c1ccc(-c2ccc(Br)cc2)o1 | 14.8
53 | COc1ccc(-c2c(C#Cc3ccsc3)c3cc(-c4ccc(OC)nc4)ccc3n2C)cc1 | 10.8
54 | CCN(CC)CCN(C(=O)CCS(=O)(=O)c1ccccc1)c1nc2cc3c(cc2s1)OCO3.Cl | -9.14
55 | Cc1ccccc1OCC(=O)N1CCC2(CC1)CC(=O)c1ccccc1O2 | -10.3
56 | Cc1ccc(CNC(=O)N2CCN(S(=O)(=O)c3ccccc3)CC2)cc1 | 14
57 | Cc1cc(=O)[nH]c(SCCc2ccccc2)n1 | -0.381
58 | Nc1nnc(SCCOc2ccc(Br)cc2)s1 | 11.7
59 | CCNC(=S)NNC(=O)c1cc(-c2cccnc2)nc2ccccc12 | 13.9
60 | O=C(c1ccc(CNc2c(N3CCCC3)c(=O)c2=O)cc1)N1CC=C(c2ccccc2)CC1 | -2.51
61 | Cc1ccc(Cn2c(SCCN3CCCCC3)nc3c2c(=O)n(C)c(=O)n3C)cc1 | -67.1
62 | CC(NC(=O)CN1C(=O)NC2(CCCCC2C)C1=O)c1ccccc1 (stereo not shown) | 5.38
63 | COc1ccc(CN2C(=O)CC(Cc3ccc(C)cc3)C2=O)cc1OC (stereo not shown) | 10.1
64 | O=C(CN1C(=O)CSCC1=O)NCc1ccc(F)cc1 | 7.66
65 | CCOc1ccc(/C=N/NC(=O)Cc2csc(Nc3cccc(C(F)(F)F)c3)n2)cc1 | 10.9
66 | O=C(C/C=N\O)Nc1ccc(Oc2ccccc2)cc1 | 14.1

Row | SMILES | hERG current change (%, negative = inhibition) at 1uM [%]
67 | Cc1ccc(S(=O)(=O)NC(C)C(=O)Nc2ccc(C(N)=O)cc2)cc1 (stereo not shown) | 16.7
68 | Nn1cc(-c2ccccc2)nc1SCC(=O)NCCN1C(=O)CSC1=O | 10.3
69 | O=C(CCCn1cnc([N+](=O)[O-])n1)Nc1cc(Cl)ccc1O | 6.78
70 | O=C(Nc1ccccc1)Nc1ccc(Oc2ncnc3cc(Cl)ccc23)nc1 | 12.6
71 | O=C(CN1C(=O)CCC1=O)Nc1nc(-c2nc3ccccc3s2)cs1 | -4.37
72 | Cc1cccc(C)c1OCC(O)CN(Cc1ccccc1O)C1CCCCC1 (stereo not shown) | 7.06
73 | CCCCSc1nnc(-c2ccc(C)cc2)c2ccccc12 | 1.54
74 | O=c1oc2cc(OCc3c(F)c(F)c(F)c(F)c3F)ccc2cc1-c1ccccn1 | 13
75 | CCOc1ccccc1-c1nnc(SCC(=O)NC2CC3CCC2C3)n1CC (stereo not shown) | 3.71
76 | Cc1cc[n+](CC(=O)Nc2nc3ccccc3s2)cc1.[Cl-] | 13.1
77 | COc1ccc(S(=O)(=O)N2CCCC(C(=O)O)C2)cc1Cl (stereo not shown) | 5.66
78 | COc1cccc(OC)c1C(=O)Nc1c(C(=O)N2CCN(C)CC2)oc2ccccc12 | -1.69
79 | O=C(CN1CCN(Cc2ccc3c(c2)OCO3)CC1)NCC(F)(F)F | 11.2
80 | Cc1ccc(CNC(=O)c2ccc(Cl)cc2[N+](=O)[O-])cc1 | 16.6
81 | O=C(NNc1cc(N2CCOCC2)nc(N2CCOCC2)n1)c1ccc(Cl)c(Cl)c1 | -17.1
82 | COc1ccc2c(c1OC)C(=O)N1c3ccccc3C(=O)N(c3ccc(F)cc3)C21 (stereo not shown) | 4.26
83 | Cc1ccc(S(=O)(=O)NCc2ccccn2)c(C)c1C | 4.44
84 | CCNC(=O)C1CCCN(c2nc(C)cc(C)n2)C1 (stereo not shown) | 1.02
85 | O=C(O)c1cccc(Nc2ccnc(Nc3cccc(C(=O)O)c3)n2)c1 | 4.72
86 | CCOc1ccc(S(=O)(=O)N2CC(=O)Nc3ccccc32)cc1 | 13.1
87 | O=C(O)c1ccccc1C(=O)N1CCN(c2ncccn2)CC1 | 15.7
88 | CCCn1cnnc1CNC(=O)C1CCC(=O)N(CCCc2ccccc2)C1 (stereo not shown) | 10.2
